The values below come from the supplement of paper PMC3334620.

Over roughly 33,000 sequences, “E-score (-0.5 to 0.5)” has its median near -0.011; the highest 2% begin near 0.28. The list shows a part of the results.

For this experiment, the target named is T1, Gcr1 (UniProt P07261).
T1 sequence: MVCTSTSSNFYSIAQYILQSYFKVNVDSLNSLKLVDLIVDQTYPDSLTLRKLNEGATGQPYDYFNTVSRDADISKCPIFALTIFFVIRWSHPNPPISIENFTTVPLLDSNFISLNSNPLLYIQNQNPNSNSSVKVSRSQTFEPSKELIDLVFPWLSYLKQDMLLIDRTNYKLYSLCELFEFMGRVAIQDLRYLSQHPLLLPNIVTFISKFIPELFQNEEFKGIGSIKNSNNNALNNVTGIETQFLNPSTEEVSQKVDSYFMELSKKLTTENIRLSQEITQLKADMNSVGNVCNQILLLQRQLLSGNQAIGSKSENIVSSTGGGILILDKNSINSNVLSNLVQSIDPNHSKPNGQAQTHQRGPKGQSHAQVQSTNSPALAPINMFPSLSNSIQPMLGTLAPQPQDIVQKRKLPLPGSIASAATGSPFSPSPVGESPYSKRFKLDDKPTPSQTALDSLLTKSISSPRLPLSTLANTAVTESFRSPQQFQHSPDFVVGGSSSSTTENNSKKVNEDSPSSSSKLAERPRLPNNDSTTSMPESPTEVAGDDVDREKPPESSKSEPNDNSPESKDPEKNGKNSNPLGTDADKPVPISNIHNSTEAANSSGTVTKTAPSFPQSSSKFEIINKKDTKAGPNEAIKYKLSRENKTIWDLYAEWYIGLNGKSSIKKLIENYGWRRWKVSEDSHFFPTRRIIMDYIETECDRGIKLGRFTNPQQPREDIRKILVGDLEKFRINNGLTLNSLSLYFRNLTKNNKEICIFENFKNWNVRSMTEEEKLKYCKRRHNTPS
The experiment in a line: PBM E-score (8-mer binding enrichment) (E-score (-0.5 to 0.5)); higher = stronger / more preferred TF binding; most listed sequences are background and not binding sites. The following applies: protein concentration: 100 nM; construct: GST-full length. Here is the method: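 Universal 'all 10-mer' protein binding microarrays (Agilent AMADID 015681) probed with GST-tagged S. cerevisiae TFs (full-length or DBD) made by in vitro transcription/translation (PURExpress), about 100-200 nM. Bound TF was detected with fluorescent anti-GST. Each ungapped 8-mer (which stands for itself and its reverse complement) is scored by the PBM enrichment score (E-score), a modified Wilcoxon-Mann-Whitney statistic from -0.5 to +0.5, computed with the Universal PBM Analysis Suite. Scale: above 0.35 generally sequence-specific binding.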
For GCACGCTA, the “PBM E-score” value was -0.0819.

For CTTGGTCA, the “PBM E-score” value was -0.0414.

Turning to ACCTGGTA, the “PBM E-score” value was 0.0521.

With ATCATTAG, the “PBM E-score” value stood at 0.154.

With GAACAAGC, the “PBM E-score” value was -0.127.

In the case of GAAAAGCC, the “PBM E-score” value was -0.326.

On to ATCATACA, for which the “PBM E-score” value is 0.162.

As to ACAGCTAA, the “PBM E-score” value was -0.226.

For the sequence ATTAGGTG, the “PBM E-score” value is 0.154.

As to ATTTTAGC, the “PBM E-score” value was 0.0912.

As for GGATTTCA, the “PBM E-score” value was determined as 0.0442.

Turning to AGGTCAGG, the “PBM E-score” value was -0.0515.

For ATCTGGAC, the “PBM E-score” value was 0.133.

As for GCGGCCCC, the “PBM E-score” value is 0.19.

Take TGTTTAAA: the “PBM E-score” value stood at 0.198.

For CGCGTGTC, the “PBM E-score” value was -0.133.

Take TATGGGCA: the “PBM E-score” value is 0.0968.

Take GCAGAACA: the “PBM E-score” value is -0.0469.

Take GTACGAAC: the “PBM E-score” value was -0.109.

As to TCCTTGCA, the “PBM E-score” value is -0.117.

On to AGCCCCCA, for which the “PBM E-score” value was 0.0591.

As for GTTTCGAA, the “PBM E-score” value was 0.0056.

On to AGGTCTCG, for which the “PBM E-score” value amounted to 0.0158.

Regarding GGGCCTTA, the “PBM E-score” value was -0.112.

As to GCCGGGCC, the “PBM E-score” value was 0.00663.

On to ACGAATAA, for which the “PBM E-score” value is -0.0743.

For the sequence ACCAACCG, the “PBM E-score” value was -0.134.

Regarding GCGAGGCC, the “PBM E-score” value was -0.114.

As to GACCAGAA, the “PBM E-score” value was 0.131.

CACTTGAG: the “PBM E-score” value was 0.00447.

Consider GTAAAGGA, for which the “PBM E-score” value was found to be 0.149.

In the case of ACCCCCTA, the “PBM E-score” value was -0.249.

As for AGGGACAA, the “PBM E-score” value was -0.168.

Consider ACGATCGC, for which the “PBM E-score” value was found to be 0.0424.

In the case of AGCGAACA, the “PBM E-score” value is -0.217.

With CTACTGGA, the “PBM E-score” value is 0.255.

Consider TCCGTGAA, for which the “PBM E-score” value was -0.0227.

On to ATGTCAGA, for which the “PBM E-score” value is -0.116.

For AGATATCC, the “PBM E-score” value is -0.0693.

As for AAATGATT, the “PBM E-score” value was 0.124.

CCCCTGGA: the “PBM E-score” value is -0.0352.

As for ACGCGCAT, the “PBM E-score” value was -0.0657.

As for CAATAAAG, the “PBM E-score” value was 0.164.

GCTTAGAC: the “PBM E-score” value was -0.144.

Take ATGAGTGG: the “PBM E-score” value was found to be 0.0935.

Take CCAAGGCC: the “PBM E-score” value was -0.205.

Turning to GCGAATCA, the “PBM E-score” value was -0.0143.

TAAGAGCA: the “PBM E-score” value came to 0.0308.

Regarding ATAACGTA, the “PBM E-score” value is -0.08.

Regarding ATGCTGTG, the “PBM E-score” value is -0.0455.

Turning to CGCCGGGA, the “PBM E-score” value is -0.0536.

Consider GCGCTCCC, for which the “PBM E-score” value is 0.078.

For the sequence CATGTATA, the “PBM E-score” value is -0.0312.

Regarding ATGTTTGA, the “PBM E-score” value is 0.00526.

Take TCCTGGCA: the “PBM E-score” value was determined as 0.0466.

For CACGAACA, the “PBM E-score” value was determined as 0.119.

In the case of AAGAATAC, the “PBM E-score” value is 0.186.

ATACTCGG: the “PBM E-score” value was -0.114.

In the case of AGTTGAAC, the “PBM E-score” value was -0.00272.

For TGCTCACA, the “PBM E-score” value was -0.0462.

Regarding AGTGTTTC, the “PBM E-score” value was 0.0569.

Consider AGATAGCT, for which the “PBM E-score” value is -0.131.

Consider CCGAGGAG, for which the “PBM E-score” value worked out at 0.00319.

Turning to CGGAGTAG, the “PBM E-score” value worked out at 0.0642.

As to GACAATTA, the “PBM E-score” value is 0.069.

With ACGAGGCG, the “PBM E-score” value is -0.0531.

Consider CAATGGTA, for which the “PBM E-score” value was determined as 0.0267.

On to CTGGCTAA, for which the “PBM E-score” value was found to be 0.0499.

As to AGGGAGCC, the “PBM E-score” value amounted to 0.296.

As for ACAATCAC, the “PBM E-score” value is -0.201.

With CGGGGACG, the “PBM E-score” value is -0.0108.

On to AGTGTAAC, for which the “PBM E-score” value is -0.186.

On to GAAGAATA, for which the “PBM E-score” value amounted to 0.0261.

Turning to CACGCACA, the “PBM E-score” value was -0.151.

Consider GCCACACA, for which the “PBM E-score” value was 0.123.

Turning to ACTGTGTC, the “PBM E-score” value was -0.117.

For the sequence ACGAACAA, the “PBM E-score” value is -0.00539.

For AATTAGGG, the “PBM E-score” value is -0.012.

Take AAGGCCCC: the “PBM E-score” value was found to be 0.0928.

Regarding GTCGGGGA, the “PBM E-score” value amounted to 0.102.

With GACTCTGA, the “PBM E-score” value is -0.0504.

For the sequence TGGATGAA, the “PBM E-score” value is -0.0905.

In the case of CGCCCCCG, the “PBM E-score” value is -0.00755.

Turning to ACTTACGC, the “PBM E-score” value is -0.118.

On to GCGCACGC, for which the “PBM E-score” value was -0.062.

For ATTCGAAC, the “PBM E-score” value is 0.0584.

As for GCAGGCGC, the “PBM E-score” value is -0.0504.

For ACCAATTA, the “PBM E-score” value came out at 0.168.

Regarding GACAACAC, the “PBM E-score” value was -0.0973.

For AAGCGCAT, the “PBM E-score” value came out at 0.141.

For CGAGTCGC, the “PBM E-score” value was -0.257.

Regarding CCCCCCTC, the “PBM E-score” value was -0.328.

For TATAGTAA, the “PBM E-score” value was found to be 0.0601.

As for TAGTACGA, the “PBM E-score” value was 0.00193.

As to ACTCTCCG, the “PBM E-score” value was -0.0847.

Turning to ACGAATAG, the “PBM E-score” value was -0.0975.

Regarding CTCCTAGC, the “PBM E-score” value is -0.149.

Consider CCAGTAGG, for which the “PBM E-score” value amounted to 0.198.

For TATTACCA, the “PBM E-score” value was found to be 0.122.

In the case of GGAGTTGA, the “PBM E-score” value amounted to 0.0702.

Consider ACGGAGGC, for which the “PBM E-score” value is -0.00955.

In the case of GATCACGC, the “PBM E-score” value is -0.0396.

Take CGTGACGA: the “PBM E-score” value is -0.0286.

With TCCCGCAA, the “PBM E-score” value stood at 0.0539.

As for ACACTACA, the “PBM E-score” value worked out at 0.125.

Consider GGCGTTCA, for which the “PBM E-score” value amounted to 0.0407.

With ACCTAAAA, the “PBM E-score” value stood at 0.207.

As to CAGTACCC, the “PBM E-score” value worked out at 0.0548.

For ACCCACTG, the “PBM E-score” value worked out at 0.147.

As to GACCGTTA, the “PBM E-score” value was -0.116.
